Assay results: the supplement of paper PMC11417369
The other results are listed elsewhere or left out.

Test system: PF3D7_0420300 AP2 domain 1 (GST-tagged)
Assay: gcPBM binding intensity (ln(normalized median fluorescence intensity)); higher = stronger DNA binding
How it was run: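 Each value is the highest Masliner-normalised natural-log median intensity across replicate spots of either orientation of a probe. The probes were primer-extended double-stranded 36-bp intergenic genomic sequences on an Agilent 4 × 180k array, alongside negative controls, exposed for 1 h to GST-tagged P. falciparum DNA-binding domains expressed in E. coli. Bound protein was picked up with Alexa488 anti-GST antibody and scanned at 488 nm.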

Sequence	gcPBM binding intensity (ln)
AATGTGAAAACGTGTACACATTTTATTTAATTTATC [CACACA_site5966]	9.28
ATAAATTATATTATTGAACACACGTTTGGTAATGTT [CACACA_site2662]	9.3
AAAAAAATAATAAAAAGTACAAAATGTAGAAAATGT [XGTACX_site5018]	9.91
AAGTTATTTATATATACACACAAATATAAATAATAT [CACACA_site1228]	9.57
ATTATAATTACTCTAGTGCATTATAAATATGAATAA	8.93
CTCAAATTTATTAGTGGTACATAACCAAGGAAATAA [XGTACX_site225]	9.01
CCTAGAAAAAAGAACTGTACATATATATATAAATAT [XGTACX_site1680]	9.25
TTAATTGAAACTTATTGTACTTTTTTTTTTTTTTTT [XGTACX_site8162]	8.89
ATAAATAAAAATAGAACACACATATGTTTTTTTTTT [CACACA_site3556]	9.39
TGAAAAAATATAATTTGTACATATCAGGCAAAAATG [XGTACX_site1824]	9.35
ATATGCAGAGACTGTTTGCACTTTTTTATTTTATGT [GTGCAC_site9695]	9.45
AGGACAAGGGTTACATGTACATATATATATATATAT [XGTACX_site901]	9.96
TATTAATAATTAAGTTGTACATTAATTAATATACTG [XGTACX_site6994]	9.16
TTTAATATTAATAATTGTACATTTTCATAAATACGC [XGTACX_site2837]	8.95
TTTAAACCTTAATATTGTACGCAAAAAAAAAAAGAA [XGTACX_site3757]	9.19
TTTATGTAGGAACTAACACACATTGTAAGATTCAGA [CACACA_site1998]	9.3
GGAACTTTTGGAGGTGCATGCGGAGCAATCTTTTCA [TGCATGCA_site454]	9.05
CATATCAATAATATCACACATATATGTGATTTTATT [CACACA_site5053]	9.28
TTATTAATTTATAAATGTACGAATTTTTTATTTAAC [XGTACX_site7605]	8.97
CCCCTTAATTAAAGGAGTACTATTTGTGAATAATAT [XGTACX_site4715]	9.48
TATAAATATAAAAGGAGTACAAATATATATATATAT [XGTACX_site1386]	9.44
AGTTATAATAAAAAATGTACGTATTATCATTAAGAA [XGTACX_site4244]	9.29

Sequence	gcPBM binding intensity (ln)
TTTTTTTTTATAGCTAAACACACATAAGAATATATG [CACACA_site8282]	9.14
AAAAAAATTAAACATACACACGTTACTATTTTTATA [CACACA_site5009]	9.34
GAAAATAAAAAATATGAACACACATATATAACAAAA [CACACA_site7975]	9.82
TCCTAATATATGTATGCACACACAATATATACATAT [CACACA_site9111]	9.64
AAAATTGATATATGCACACATATATATATTAAATAT [CACACA_site763]	9.29
TTTCATTCTGGTATCACACATTTATTTTCTAGTTTA [CACACA_site4286]	9.63
AAAAAAAAAAAAAACACACATACACATATATTTTTA [CACACA_site3893]	9.45
AAAATATAAATTCATGTGCACATATATATTTTGTTA [GTGCAC_site9782]	9.23
AGGAAAAAATCGAGTAGTACACATTTAGAAATATAA [XGTACX_site8019]	9.28
ATATCACATATATATATATATATATATATATATATA [XGTACX_negctrl_site463]	9
AACAAGGCCCGGTACTGTACATTTTTTCATAACATT [XGTACX_site6134]	9.49
GTATGTATATTTATCTGTACATATTTATGTATTCTT [XGTACX_site2112]	9.54
TATATACATATATACACACACATATATTATATATAT [CACACA_site275]	9.75
AATTATACTCACGTTACACACACACTATATATATAT [CACACA_site9375]	10.2
TCAAAATGTTACAAATTATGTTGGCTAAAATTTTAA [TGCATGCA_negctrl_site188]	8.92
TTGAACCTGATAAATACACACAATATAGATTTTTTT [CACACA_site7091]	9.29
ACACATATAAATAAAACATGCATATGTAAATATATA [TGCATGCA_site403]	9.56
TATAATATAATATTTTGTACATATGATAAAAAAAAA [XGTACX_site6858]	9.13
AAATATATCTTCTTTGCACACTTAAAGGGAAGTGAT [CACACA_site343]	9.08
AGATATATTTTTTAAATTTAAAAATTATAAAATTTA [CACACA_negctrl_site533]	8.69
ACAATAATTTCCATCACACATATATTTATATATTAC [CACACA_site6003]	9.45
TTGCATCTACATTTATGTACATATCTTATGATAAAT [XGTACX_site2146]	9.24

Sequence	gcPBM binding intensity (ln)
ATACATATTCTTATTTGTACTTATTATAAAATGGTC [XGTACX_site6584]	9.19
TAACTGATATATAAAACACACATCATAAAAATATAA [CACACA_site6499]	9.49
GATAGAAAAAAATAATGTACACACACATATATGTTT [XGTACX_site392]	9.72
TTTCTTTTTTCTGTTATTATTATAAAACGATATTTA [TGCATGCA_negctrl_site167]	9.29
TACACATACCCATACACACGCATAGAAACATACGAA [CACACA_site5212]	9.61
TATTTTTATTTTAATTGTACTTTTTAATTAATAATA [XGTACX_site8302]	9.05
GCTGAAAGGATAAAGGTGCATATTTTTTAAAAAATT [GTGCAC_site9487]	9
AATATTTTATATGTAGTGCATTACTATAGGATTTAT [GTGCAC_site9424]	9.18
TTTTTTTTTTTTATATGTACTAATAATCTTTTTTTT [XGTACX_site3552]	9.14
TGCTTATATCTTATAATATTTATACATCATAATAAG [CACACA_negctrl_site629]	9.17
TGTGTCAAATAATTAATGTCATATATATTTTGTATA [CACACA_negctrl_site1479]	9.2
ACAAAATAAACGGCTGCACACAAGAAGCACAATATT [CACACA_site3690]	9.99
GCATATAAAATAAATCGTACATGTAAAACATAATTA [XGTACX_site7077]	9.2
TTTCAATAATAAAAAACACACACAAAAAAAAATAAT [CACACA_site8905]	10.1
AAAAATATAAACACCAGTACACAAACCTATAATGGA [XGTACX_site3846]	9.84
AAAGTAAATTTAAGCACACACAACGAATTTTTATAC [CACACA_site1959]	9.94
AATATATGGTTTCATGATATTAAATACAATTTAATG [CACACA_negctrl_site1503]	9.03
ATATATATATGTATATGTACTTATATTATTGTTTGT [XGTACX_site1466]	9.44
CTATAATTATGATGAAGTACATATGAGTTCAAAAAA [XGTACX_site3070]	9.15
ACATAATGCTAGACACGTACGTACATCCGTGAGGTT [XGTACX_site4156]	9.38
TTATTATTATATTCTACATGCAGTTTGTGTAGAACA [TGCATGCA_site455]	9.15
TGAACTCAACAAAGGGTGCATAACAAAAATAGACGT	9.7

Sequence	gcPBM binding intensity (ln)
GTAAAAGAACGGCATGCATGAAAAATATTACACATG [TGCATGCA_site143]	9.49
TATATATGTATATATTTTATAAGTATGCAAGAAAAT [TGCATGCA_negctrl_site486]	9.36
ATATTGGAATAAATTTGTACATATATATATTATTCA [XGTACX_site916]	9.24
TGTACGAGTCGTAGAGTGCAGTCTGGAGAAGAGTAC [GTGCAC_site9684]	9.23
AAAATTTATAAAAGCACACAAAATAAAAAAAAATGA [CACACA_site1491]	9.55
TTATAATATGTATACACACACATATATAAATATATA [CACACA_site2326]	9.51
TTTTGTTATATACAATAGATCAGAAGAAATGAAGTT [CACACA_negctrl_site1579]	9.27
CTTACGTATTAAGTGTGTCCGTAGTGTTCATAGTTC [XGTACX_site8913]	9.34
CAATGTTAACATATTACACACATATGTATATAGAAT [CACACA_site2732]	9.67
TATATATCAAGACACACACACATATATTTATTTATA [CACACA_site7733]	9.94
GATAATTTATTTTTTCGTACACAAAATATAATATAT [XGTACX_site1470]	9.17
TCGTGAGAAAATATTACACACATTTACTATAGTATC [CACACA_site3444]	9.54
TTTTTTAAAGATTACTCAAAAAAATAAAAAAATAAA [GTGCAC_negctrl_site222]	8.71
TTTTTTTTTTTTTTTTGATACATTAACCTACAATGG [GTGCAC_negctrl_site625]	8.46
TGAGTTCAACAAAGACGTACAAAACCAAAAATATAA [XGTACX_site8931]	9.44
AAAAAAAAAGAAAAATGTACATACATAAATATATAT [XGTACX_site5664]	9.22
ATTATAAACCATAATTAACACACAAAATAAGTTACA [CACACA_site9057]	9.75
AAAAAAAAAAAAAAAAGTACACAAATAGATTTATAT [XGTACX_site3727]	9.22
TCCTTTCAACCATATATAATGACATGTACTCAAAAA [GTGCAC_negctrl_site417]	9
CATCCATATAAAATATGTACATATATATATATATAT [XGTACX_site5859]	9.29
TATTTTAGTAAAGGTGGTACTTTTAAGTTCATGTAT [XGTACX_site1854]	9.17
TAAAATAAAAAGTTTACACACATATATAATTTTAAT [CACACA_site662]	9.36
